# The list shows a part of the results. Binding of human transcription factors and regulators to the viral nucleoprotein by AlphaScreen, crude cell-free proteins, amounts not normalised, one pass. Fold of the Venus control; higher = more signal. No active / inactive call. Single-pass screen; sequences are the whole Swiss-Prot entries looked up by name.
# B1: ATOH1, Q92858 (protein)
# chain: MSRLLHAEEWAEVKELGDHHRQPQPHHLPQPPPPPQPPATLQAREHPVYPPELSLLDSTDPRAWLAPTLQGICTARAAQYLLHSPELGASEAAAPRDEVDGRGELVRRSSGGASSSKSPGPVKVREQLCKLKGGVVVDELGCSRQRAPSSKQVNGVQKQRRLAANARERRRMHGLNHAFDQLRNVIPSFNNDKKLSKYETLQMAQIYINALSELLQTPSGGEQPPPPPASCKSDHHHLRTAASYEGGAGNATAAGAQQASGGSQRPTPPGSCRTRFSAPASAGGYSVQLDALHFSTFEDSALTAMMAQKNLSPSLPGSILQPVQEENSKTSPRSHRSDGEFSPHSHYSDSDEAS
# B2: GTF2H4, Q92759 (protein)
# chain: MESTPSRGLNRVHLQCRNLQEFLGGLSPGVLDRLYGHPATCLAVFRELPSLAKNWVMRMLFLEQPLPQAAVALWVKKEFSKAQEESTGLLSGLRIWHTQLLPGGLQGLILNPIFRQNLRIALLGGGKAWSDDTSQLGPDKHARDVPSLDKYAEERWEVVLHFMVGSPSAAVSQDLAQLLSQAGLMKSTEPGEPPCITSAGFQFLLLDTPAQLWYFMLQYLQTAQSRGMDLVEILSFLFQLSFSTLGKDYSVEGMSDSLLNFLQHLREFGLVFQRKRKSRRYYPTRLAINLSSGVSGAGGTVHQPGFIVVETNYRLYAYTESELQIALIALFSEMLYRFPNMVVAQVTRESVQQAIASGITAQQIIHFLRTRAHPVMLKQTPVLPPTITDQIRLWELERDRLRFTEGVLYNQFLSQVDFELLLAHARELGVLVFENSAKRLMVVTPAGHSDVKRFWKRQKHSS
# B3: RXRG, P48443 (protein)
# chain: MYGNYSHFMKFPAGYGGSPGHTGSTSMSPSAALSTGKPMDSHPSYTDTPVSAPRTLSAVGTPLNALGSPYRVITSAMGPPSGALAAPPGINLVAPPSSQLNVVNSVSSSEDIKPLPGLPGIGNMNYPSTSPGSLVKHICAICGDRSSGKHYGVYSCEGCKGFFKRTIRKDLIYTCRDNKDCLIDKRQRNRCQYCRYQKCLVMGMKREAVQEERQRSRERAESEAECATSGHEDMPVERILEAELAVEPKTESYGDMNMENSTNDPVTNICHAADKQLFTLVEWAKRIPHFSDLTLEDQVILLRAGWNELLIASFSHRSVSVQDGILLATGLHVHRSSAHSAGVGSIFDRVLTELVSKMKDMQMDKSELGCLRAIVLFNPDAKGLSNPSEVETLREKVYATLEAYTKQKYPEQPGRFAKLLLRLPALRSIGLKCLEHLFFFKLIGDTPIDTFLMEMLETPLQIT
# B4: SNAPC5, O75971 (protein)
# chain: MLSRLQELRKEEETLLRLKAALHDQLNRLKVEELALQSMISSRRGDEMLSSHTVPEQSHDMLVHVDNEASINQTTLELSTKSHVTEEEEEEEEEESDS
# B5: FOXP1, Q9H334 (protein)
# chain: MMQESGTETKSNGSAIQNGSGGSNHLLECGGLREGRSNGETPAVDIGAADLAHAQQQQQQALQVARQLLLQQQQQQQVSGLKSPKRNDKQPALQVPVSVAMMTPQVITPQQMQQILQQQVLSPQQLQVLLQQQQALMLQQQQLQEFYKKQQEQLQLQLLQQQHAGKQPKEQQQVATQQLAFQQQLLQMQQLQQQHLLSLQRQGLLTIQPGQPALPLQPLAQGMIPTELQQLWKEVTSAHTAEETTGNNHSSLDLTTTCVSSSAPSKTSLIMNPHASTNGQLSVHTPKRESLSHEEHPHSHPLYGHGVCKWPGCEAVCEDFQSFLKHLNSEHALDDRSTAQCRVQMQVVQQLELQLAKDKERLQAMMTHLHVKSTEPKAAPQPLNLVSSVTLSKSASEASPQSLPHTPTTPTAPLTPVTQGPSVITTTSMHTVGPIRRRYSDKYNVPISSADIAQNQEFYKNAEVRPPFTYASLIRQAILESPEKQLTLNEIYNWFTRMFAYFRRNAATWKNAVRHNLSLHKCFVRVENVKGAVWTVDEVEFQKRRPQKISGNPSLIKNMQSSHAYCTPLNAALQASMAENSIPLYTTASMGNPTLGNLASAIREELNGAMEHTNSNESDSSPGRSPMQAVHPVHVKEEPLDPEEAEGPLSLVTTANHSPDFDHDRDYEDEPVNEDME
# B6: NR3C1, P04150 (protein)
# chain: MDSKESLTPGREENPSSVLAQERGDVMDFYKTLRGGATVKVSASSPSLAVASQSDSKQRRLLVDFPKGSVSNAQQPDLSKAVSLSMGLYMGETETKVMGNDLGFPQQGQISLSSGETDLKLLEESIANLNRSTSVPENPKSSASTAVSAAPTEKEFPKTHSDVSSEQQHLKGQTGTNGGNVKLYTTDQSTFDILQDLEFSSGSPGKETNESPWRSDLLIDENCLLSPLAGEDDSFLLEGNSNEDCKPLILPDTKPKIKDNGDLVLSSPSNVTLPQVKTEKEDFIELCTPGVIKQEKLGTVYCQASFPGANIIGNKMSAISVHGVSTSGGQMYHYDMNTASLSQQQDQKPIFNVIPPIPVGSENWNRCQGSGDDNLTSLGTLNFPGRTVFSNGYSSPSMRPDVSSPPSSSSTATTGPPPKLCLVCSDEASGCHYGVLTCGSCKVFFKRAVEGQHNYLCAGRNDCIIDKIRRKNCPACRYRKCLQAGMNLEARKTKKKIKGIQQATTGVSQETSENPGNKTIVPATLPQLTPTLVSLLEVIEPEVLYAGYDSSVPDSTWRIMTTLNMLGGRQVIAAVKWAKAIPGFRNLHLDDQMTLLQYSWMFLMAFALGWRSYRQSSANLLCFAPDLIINEQRMTLPCMYDQCKHMLYVSSELHRLQVSYEEYLCMKTLLLLSSVPKDGLKSQELFDEIRMTYIKELGKAIVKREGNSSQNWQRFYQLTKLLDSMHEVVENLLNYCFQTFLDKTMSIEFPEMLAEIITNQIPKYSNGNIKKLLFHQK
# B7: CTCF, P49711 (protein)
# chain: MEGDAVEAIVEESETFIKGKERKTYQRRREGGQEEDACHLPQNQTDGGEVVQDVNSSVQMVMMEQLDPTLLQMKTEVMEGTVAPEAEAAVDDTQIITLQVVNMEEQPINIGELQLVQVPVPVTVPVATTSVEELQGAYENEVSKEGLAESEPMICHTLPLPEGFQVVKVGANGEVETLEQGELPPQEDPSWQKDPDYQPPAKKTKKTKKSKLRYTEEGKDVDVSVYDFEEEQQEGLLSEVNAEKVVGNMKPPKPTKIKKKGVKKTFQCELCSYTCPRRSNLDRHMKSHTDERPHKCHLCGRAFRTVTLLRNHLNTHTGTRPHKCPDCDMAFVTSGELVRHRRYKHTHEKPFKCSMCDYASVEVSKLKRHIRSHTGERPFQCSLCSYASRDTYKLKRHMRTHSGEKPYECYICHARFTQSGTMKMHILQKHTENVAKFHCPHCDTVIARKSDLGVHLRKQHSYIEQGKKCRYCDAVFHERYALIQHQKSHKNEKRFKCDQCDYACRQERHMIMHKRTHTGEKPYACSHCDKTFRQKQLLDMHFKRYHDPNFVPAAFVCSKCGKTFTRRNTMARHADNCAGPDGVEGENGGETKKSKRGRKRKMRSKKEDSSDSENAEPDLDDNEDEEEPAVEIEPEPEPQPVTPAPPPAKKRRGRPPGRTNQPKQNQPTAIIQVEDQNTGAIENIIVEVKKEPDAEPAEGEEEEAQPAATDAPNGDLTPEMILSMMDR
# B8: SNAPC4, Q5SXM2 (protein)
# chain: MDVDAEREKITQEIKELERILDPGSSGSHVEISESSLESDSEADSLPSEDLDPADPPISEEERWGEASNDEDDPKDKTLPEDPETCLQLNMVYQEVIQEKLAEANLLLAQNREQQEELMRDLAGSKGTKVKDGKSLPPSTYMGHFMKPYFKDKVTGVGPPANEDTREKAAQGIKAFEELLVTKWKNWEKALLRKSVVSDRLQRLLQPKLLKLEYLHQKQSKVSSELERQALEKQGREAEKEIQDINQLPEEALLGNRLDSHDWEKISNINFEGSRSAEEIRKFWQNSEHPSINKQEWSREEEERLQAIAAAHGHLEWQKIAEELGTSRSAFQCLQKFQQHNKALKRKEWTEEEDRMLTQLVQEMRVGSHIPYRRIVYYMEGRDSMQLIYRWTKSLDPGLKKGYWAPEEDAKLLQAVAKYGEQDWFKIREEVPGRSDAQCRDRYLRRLHFSLKKGRWNLKEEEQLIELIEKYGVGHWAKIASELPHRSGSQCLSKWKIMMGKKQGLRRRRRRARHSVRWSSTSSSGSSSGSSGGSSSSSSSSSEEDEPEQAQAGEGDRALLSPQYMVPDMDLWVPARQSTSQPWRGGAGAWLGGPAASLSPPKGSSASQGGSKEASTTAAAPGEETSPVQVPARAHGPVPRSAQASHSADTRPAGAEKQALEGGRRLLTVPVETVLRVLRANTAARSCTQKEQLRQPPLPTSSPGVSSGDSVARSHVQWLRHRATQSGQRRWRHALHRRLLNRRLLLAVTPWVGDVVVPCTQASQRPAVVQTQADGLREQLQQARLASTPVFTLFTQLFHIDTAGCLEVVRERKALPPRLPQAGARDPPVHLLQASSSAQSTPGHLFPNVPAQEASKSASHKGSRRLASSRVERTLPQASLLASTGPRPKPKTVSELLQEKRLQEARAREATRGPVVLPSQLLVSSSVILQPPLPHTPHGRPAPGPTVLNVPLSGPGAPAAAKPGTSGSWQEAGTSAKDKRLSTMQALPLAPVFSEAEGTAPAASQAPALGPGQISVSCPESGLGQSQAPAASRKQGLPEAPPFLPAAPSPTPLPVQPLSLTHIGGPHVATSVPLPVTWVLTAQGLLPVPVPAVVSLPRPAGTPGPAGLLATLLPPLTETRAAQGPRAPALSSSWQPPANMNREPEPSCRTDTPAPPTHALSQSPAEADGSVAFVPGEAQVAREIPEPRTSSHADPPEAEPPWSGRLPAFGGVIPATEPRGTPGSPSGTQEPRGPLGLEKLPLRQPGPEKGALDLEKPPLPQPGPEKGALDLGLLSQEGEAATQQWLGGQRGVRVPLLGSRLPYQPPALCSLRALSGLLLHKKALEHKATSLVVGGEAERPAGALQASLGLVRGQLQDNPAYLLLRARFLAAFTLPALLATLAPQGVRTTLSVPSRVGSESEDEDLLSELELADRDGQPGCTTATCPIQGAPDSGKCSASSCLDTSNDPDDLDVLRTRHARHTRKRRRLV
# Target: nucleoprotein N of Crimean-Congo hemorrhagic fever virus
# Test: AlphaScreen luminescence signal relative to Venus negative control (fold); higher = stronger binding to CCHFV N
# Method: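 AlphaScreen binding of cell-free made, FLAG-GST-tagged human transcription factors and regulators (crude translation products) to biotinylated N protein; signal as fold of the FLAG-GST-Venus control. One pass.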
row,Binder,AlphaScreen luminescence signal
1,B1,2.14
2,B2,2.6
3,B3,1.49
4,B4,1.16
5,B5,2.74
6,B6,1.77
7,B7,1.91
8,B8,1.67
